# Results: the supplement of paper PMC7826260
# Some of the results follow. Each Rep nickase domain was tested in vitro on the same pool of single strands (3 µM enzyme, 1 h, 37 °C); shown is the middle of each 90-letter strand. The score is log2 (uncut reads / reads without enzyme); more negative means more cut, near 0 not cut, and no call is made. Because reads are shares of a total, they shift together; uncut strands gain when others are lost, and binding without cutting may add a little.
# What was measured:
# Assay in all cases: uncleaved DNA left, log2 of reads against the no-enzyme library (log2 ratio); higher = less cleavage (more negative = more Rep cleavage of the k-mer); sequences stand for … in CTCGTCCG…ACCGGAGA
# [1] = test system: T1, Rep nickase domain of Muscovy duck circovirus
# T1 sequence (Rep 1-111, printed without the tag): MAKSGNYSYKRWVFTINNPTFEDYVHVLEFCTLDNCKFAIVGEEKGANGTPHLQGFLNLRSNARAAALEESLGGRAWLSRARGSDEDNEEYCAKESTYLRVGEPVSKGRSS
# Description: (§1)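 A pool of 90-nt single-stranded DNAs with seven random bases just before the constant AC of the nick site (name = the seven bases) was cut by 3 µM recombinant His6-SUMO-tagged Rep nickase domain (300 nM DNA, 50 mM HEPES pH 8.0, 50 mM NaCl, 1 mM MnCl2, 1 h, 37 °C, three replicates). Uncut DNA was amplified and sequenced.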
# [2] = test system: T2, Rep nickase domain of banana bunchy top virus
# T2 sequence (Rep 1-94, printed without the tag): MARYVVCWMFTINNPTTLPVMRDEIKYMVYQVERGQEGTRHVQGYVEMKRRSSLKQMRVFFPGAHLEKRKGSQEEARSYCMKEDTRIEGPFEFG
# Description: as §1
# [3] = test system: T3, Rep nickase domain of cabbage leaf curl virus
# T3 sequence (Rep 1-116, printed without the tag): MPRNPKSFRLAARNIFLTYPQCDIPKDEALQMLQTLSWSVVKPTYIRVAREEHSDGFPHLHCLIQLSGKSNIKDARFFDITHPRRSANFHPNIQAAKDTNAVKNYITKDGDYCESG
# Description: as §1
# [4] = test system: T4, Rep nickase domain of chickpea chlorotic dwarf virus
# T4 sequence (Rep 1-124, printed without the tag): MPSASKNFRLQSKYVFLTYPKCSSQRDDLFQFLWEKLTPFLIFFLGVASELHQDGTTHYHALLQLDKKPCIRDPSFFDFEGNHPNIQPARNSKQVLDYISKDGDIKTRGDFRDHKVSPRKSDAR
# Description: as §1
# [5] = test system: T5, Rep nickase domain of faba bean necrotic yellows virus
# T5 sequence (Rep 1-98, printed without the tag): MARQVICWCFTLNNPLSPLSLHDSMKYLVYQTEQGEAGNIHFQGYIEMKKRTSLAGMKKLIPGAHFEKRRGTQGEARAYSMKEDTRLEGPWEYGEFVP
# Description: as §1
# [6] = test system: T6, Rep nickase domain of maize striate mosaic virus
# T6 sequence (Rep 1-117, printed without the tag): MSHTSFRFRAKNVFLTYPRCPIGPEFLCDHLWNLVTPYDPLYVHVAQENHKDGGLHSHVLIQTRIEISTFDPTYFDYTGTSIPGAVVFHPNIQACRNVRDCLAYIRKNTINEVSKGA
# Description: as §1
# [7] = test system: T7, Rep nickase domain of porcine circovirus 2
# T7 sequence (Rep 2-116, printed without the tag): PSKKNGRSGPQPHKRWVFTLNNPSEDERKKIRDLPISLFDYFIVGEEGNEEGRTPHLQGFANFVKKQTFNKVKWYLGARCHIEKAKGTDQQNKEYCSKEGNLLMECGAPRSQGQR
# Description: as §1
# [8] = test system: T8, Rep nickase domain of tomato yellow leaf curl virus
# T8 sequence (Rep 1-136, printed without the tag): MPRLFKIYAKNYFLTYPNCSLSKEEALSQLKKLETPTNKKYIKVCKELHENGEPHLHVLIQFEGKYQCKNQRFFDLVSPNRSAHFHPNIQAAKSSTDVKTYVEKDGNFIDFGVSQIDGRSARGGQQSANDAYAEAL
# Description: as §1
# [9] = test system: T9, Rep nickase domain of wheat dwarf virus
# T9 sequence (Rep 1-137, printed without the tag): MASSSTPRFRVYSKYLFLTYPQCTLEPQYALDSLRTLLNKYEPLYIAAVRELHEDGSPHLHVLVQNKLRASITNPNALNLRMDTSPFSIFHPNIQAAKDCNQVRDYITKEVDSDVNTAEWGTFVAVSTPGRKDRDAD
# Description: as §1
Sequence,uncleaved DNA left (log2) [1],uncleaved DNA left (log2) [2],uncleaved DNA left (log2) [3],uncleaved DNA left (log2) [4],uncleaved DNA left (log2) [5],uncleaved DNA left (log2) [6],uncleaved DNA left (log2) [7],uncleaved DNA left (log2) [8],uncleaved DNA left (log2) [9]
TGAGACT,-0.0563,-0.0438,0.141,0.449,-0.12,1.57,0.0704,-0.00509,0.05
GGATGGG,0.0846,-0.0371,-0.115,0.0546,-0.00903,-0.408,0.231,-0.0552,-0.106
TGCCAGC,0.0109,0.0325,0.125,-0.0102,-0.00943,-0.354,0.0427,-0.0514,0.0833
AGCAGGG,0.0998,0.119,0.00248,0.323,0.174,0.249,0.221,0.183,0.154
CAGCGTG,0.213,0.136,-0.149,0.0571,0.0252,-0.24,0.246,0.0475,-0.122
GCTCGAT,0.113,0.0496,0.0947,0.728,0.041,0.633,0.0868,0.016,-0.0432
CACAGTG,0.212,0.0496,-0.767,-0.531,0.196,-0.91,0.18,0.165,0.0552
CCAATCC,0.00301,0.0827,-0.0746,-0.101,0.00124,-0.39,0.063,-0.00474,-0.0717
ATAGTGT,0.135,0.102,0.0299,0.153,0.0467,-0.172,0.077,0.148,0.0526
AATTAAT,-3.45,-3.89,-1.05,-2.57,-0.603,-0.245,-3.74,0.0688,-0.288
CACTTGC,0.0413,0.0673,-0.843,-0.36,0.0316,-1.01,0.107,0.131,-0.0419
GCGACCC,0.0353,0.0417,0.111,0.614,0.0453,0.591,-0.00674,-0.0379,0.063
GGCTTAT,-0.131,-0.0703,0.472,1.01,-0.0203,1.66,-0.53,-0.133,0.0177
AGGCTGA,-0.0273,0.00713,0.243,1.53,-0.0362,1.65,0.0568,-0.168,-0.0167
TGCAGAG,0.0263,0.0326,-0.327,-0.374,-0.0258,-0.844,0.086,0.0553,-0.151
AGTTCGG,0.125,0.0389,0.419,1.31,-0.016,1.65,0.0975,-0.0815,0.141
GCGTGTG,0.0143,-0.111,-0.588,-0.308,-0.156,-0.572,0.0163,-0.0519,-0.228
TAATTCC,-0.0792,-0.11,-3.9,-3.21,0.089,-3.21,-0.212,-0.0626,-3.5
TCAATGT,0.0727,-0.0621,0.0509,-0.308,0.0903,-0.678,0.113,-0.0181,-0.076
ACCCCAG,-0.0666,-0.113,-0.789,-0.281,-0.125,-1.06,0.0189,-0.215,-0.164

Sequence,uncleaved DNA left (log2) [1],uncleaved DNA left (log2) [2],uncleaved DNA left (log2) [3],uncleaved DNA left (log2) [4],uncleaved DNA left (log2) [5],uncleaved DNA left (log2) [6],uncleaved DNA left (log2) [7],uncleaved DNA left (log2) [8],uncleaved DNA left (log2) [9]
GTATGAT,-0.1,0.137,0.215,0.863,-0.0179,1.76,-0.149,0.0712,0.167
TAGCGCA,0.0329,-0.00237,-0.222,-0.15,-0.0526,-0.211,-0.136,-0.181,-8.2e-07
ATGACCC,-0.12,0.00969,0.301,0.96,-0.0195,0.814,0.0105,0.0271,0.122
CCGCGGG,-0.0447,-0.0798,0.359,0.347,0.146,0.419,0.162,-0.0345,0.00984
TCACGGT,0.07,-0.123,0.236,0.38,-0.109,1.23,-0.00286,-0.0784,-0.1
CGAGTAC,0.0469,-0.0472,0.0601,0.0806,0.0196,0.0591,-0.141,-0.015,0.0382
TCCCAAC,-0.0285,0.0377,-0.00311,-1.09,0.0803,-0.42,-0.0367,0.0279,-0.0057
GCCTCCC,-0.103,-0.144,0.112,0.255,-0.0335,0.417,-0.144,-0.183,-0.185
CTTCAAG,0.0249,-0.0633,-0.791,-0.496,-0.0329,-1.2,0.205,0.0174,0.015
CACAACG,0.0435,0.0341,-0.92,-0.303,3.79e-05,-1.02,0.00776,-0.099,-0.168
GTTAATA,-0.00353,0.0462,0.293,0.905,0.0714,1.74,-0.017,0.117,0.0777
AGTCAGT,-0.0346,0.0399,-0.0604,-0.169,-0.148,-0.47,-3.17,0.0408,-0.00228
ATTCTGA,0.151,-0.037,-0.0378,0.29,-0.0469,0.156,0.0562,-0.151,0.0212
CACCCCC,-0.281,-0.228,-0.122,-1.13,-0.242,-0.418,-0.688,-0.206,-0.122
TGTCGCT,0.0452,-0.0281,-0.236,-1.17,-0.00461,-0.832,-0.168,-0.0242,-0.0733
CGAAGCA,0.118,0.142,0.311,0.959,0.0921,0.958,-0.195,0.0436,0.176
GATGTGG,0.00674,-0.0993,-0.125,0.0166,-0.0377,-0.637,-0.00569,-0.0798,-0.0533
TATACGG,0.101,0.122,0.637,1.69,0.123,2.22,0.209,0.0349,0.209
CGGAATT,-0.0978,-0.0612,0.383,-0.03,-0.0806,1.17,-0.467,-0.00592,0.108
CATCCTT,0.182,-0.0857,-0.377,-2.57,0.194,-0.562,-0.782,0.00182,-0.00724

Sequence,uncleaved DNA left (log2) [1],uncleaved DNA left (log2) [2],uncleaved DNA left (log2) [3],uncleaved DNA left (log2) [4],uncleaved DNA left (log2) [5],uncleaved DNA left (log2) [6],uncleaved DNA left (log2) [7],uncleaved DNA left (log2) [8],uncleaved DNA left (log2) [9]
CCCCGTA,0.0293,0.117,0.106,-0.756,-0.137,-0.44,-0.133,0.148,0.0772
GCGGCCT,0.0219,0.000831,0.335,0.595,-0.118,1.34,-0.0839,0.0296,-0.078
GGTGGCT,-0.0163,0.0194,0.775,1.63,-0.0961,2.15,0.152,0.00768,0.1
ACTATCC,-0.156,-0.0463,-0.234,-0.143,-0.0545,-0.587,-0.0204,-0.24,-0.0639
GAGCTGG,-0.0368,-0.0816,0.112,0.782,-0.0166,0.765,0.0652,-0.1,-0.00356
CTGATTA,0.185,0.0667,0.0144,-0.802,0.176,-0.307,0.0639,0.119,0.128
TTCACAC,0.0284,0.06,0.271,-0.162,0.0146,-0.11,0.0547,0.126,0.0925
CGTTATT,-2.74,-2.71,-0.336,-2.1,-0.46,-0.117,-3.55,0.103,-0.79
AAGTCAT,0.0474,-0.00244,0.19,0.516,-0.118,1.26,-3.75,0.0173,0.149
GGTATAT,0.135,0.265,0.869,1.87,0.0653,2.23,0.241,0.159,0.28
GCACAAG,0.0836,-0.0133,-0.755,-0.401,0.0508,-0.921,0.15,-0.0049,0.012
CTGGTTA,-0.115,-0.12,-0.173,-0.891,-0.0554,-0.179,-0.0202,-0.21,-0.132
ATAGGGA,0.112,0.0941,0.342,1.05,0.0893,0.913,0.112,-0.107,0.122
CAGGATC,0.189,-0.0674,0.22,1.3,0.112,1.34,0.111,-0.1,-0.0583
TACTGAT,-2.49,-0.588,-1.49,-1.8,0.13,0.875,-3.62,-0.138,-0.0493
CGCGTTA,-0.0106,-0.0509,-0.377,-0.707,0.0925,-0.748,-0.131,0.00451,-0.187
CAAGGCA,0.0767,0.0767,-0.00641,-0.0906,0.0435,-0.577,0.00622,0.0722,0.0617
GAGGCAG,0.167,0.113,0.797,1.76,0.0722,1.77,0.297,0.106,0.196
GCAAGAA,-0.0186,0.0241,-0.00943,0.399,0.0997,-0.274,0.107,-0.0437,0.0241
AAGTTTT,-3.32,-3.37,-0.481,-3,-2.88,0.27,-4.48,0.0212,-0.0904
